# In PubChem BioAssay AID686979 (National Center for Advancing Translational Sciences (NCATS), 2013):
# Hit rate of the full screen: of about 420,000 compounds, about 50,000 (12%) were called active. The shares of active, inactive and inconclusive entries below differ from those in the screen. The call rests on the fitted dose curve; in most records, active means well fitted inhibition curve with a large enough effect; inconclusive means small, poorly fitted or top-dose-only effect; inactive means flat fitted curve, though single readings scatter. Potencies of inconclusive entries are left out as doubtful fits.
# Test: qHTS for Inhibitors of human tyrosyl-DNA phosphodiesterase 1 (TDP1): qHTS in cells in presence of CPT; further: nearly all actives have a fitted effect of over 55% in size
# Details: chicken DT40 Tdp1-/-;hTDP1 cells + 20 nM CPT, ATP luminescence, 48 h; activity change, negative = growth inhibition: at 46.2 µM (top of the series)
# In short: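 Cell growth measured by CellTiter-Glo luminescence after a minimum 48 h, 37 C compound exposure with 20 nM CPT in Tdp1-knockout DT40 cells stably expressing hTDP1, seeded 400/well; qHTS titration format.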
# On the % scale 0 is the no-effect control and ±100 the full control effect; potency means the concentration at half of the fitted maximal effect; tags describe the fitted curve by direction and shape.
Structure (SMILES),Potency,"activity change, negative = growth inhibition"
Cc1nc(NC(=O)C23CC4CC(CC(C4)C2)C3)sc1Cc1ccc2c(c1)OCO2,"inconclusive [inhibitor, single point]",–
COc1ccc(CC2(CO)CCN(C(C)Cc3ccc(Cl)cc3)CC2)cc1 (stereo not given),"inconclusive [inhibitor, single point]",–
Cn1c(=O)c(Cc2ccccc2)c(O)c2ccccc21,–,inconclusive: -2.35% [inhibitor]
CN(C)S(=O)(=O)c1cccc(NC(=S)NC23CC4CC(CC(C4)C2)C3)c1,"inconclusive [inhibitor, single point]",–
CSc1nsc(SC)c1CO,inactive,–
COc1ccc(C(=O)CSc2nn3c(=O)c(C(C)(C)C)nnc3s2)cc1,"inconclusive [inhibitor, single point]",–
CCN(CC)CCNC(=O)Cn1ncc2ccccc2c1=O,inactive,–
COc1cccc(CNC(=O)CCNC(=O)c2ccccc2OC)c1,inactive,–
COc1ccc(Nc2nc(-c3ccccc3)c(C(=O)Nc3cccnc3)s2)cc1,"inconclusive [inhibitor, single point]",–
O=c1c2ccccc2c(=O)n(-c2ccccc2)n1CCCCBr,"inconclusive [inhibitor, single point]",–
CCOc1cc(S(=O)(=O)n2cc(-c3ccc(F)cc3)c(N)n2)cc(OCC)c1OCC,"inconclusive [inhibitor, single point]",–
CCOc1ccc2oc(=O)cc(CN3CCN(c4ccc(OC)cc4)CC3)c2c1,"inconclusive [inhibitor, single point]",–
CC1=C(C(=O)OC2CCCCCCC2)C(c2ccc(O)cc2)NC(=O)N1 (stereo not given),"inconclusive [inhibitor, single point]",–
OCc1cc([C@@H](O)CNCCCCCCOCCCCc2ccccc2)ccc1O,active: 9.44 µM,–
O=C(Nc1nc2n(n1)C(c1ccc(F)cc1)C=C(c1ccc(Cl)cc1)N2)c1ccco1 (stereo not given),"inconclusive [inhibitor, single point]",–
CCOC(=O)c1ccc(N2C(=O)c3n[nH]c(-c4cccs4)c3C2c2ccc(O)c(OC)c2)cc1 (stereo not given),"inconclusive [inhibitor, single point]",–
CCN(C(=O)CCS(=O)(=O)c1cccc2nsnc12)c1cccc(C)c1,"inconclusive [inhibitor, partial curve]",–
Cc1ccc(-c2nnn(CC(=O)N(Cc3cccs3)C(C(=O)NC(C)(C)C)c3ccc(C)o3)n2)o1 (stereo not given),"inconclusive [inhibitor, single point]",–
Cc1noc(C)c1COc1ccc(C(=O)NCC(c2c(F)cccc2Cl)N(C)C)cc1 (stereo not given),"inconclusive [inhibitor, partial curve, poor fit]",–
Cc1ccnn1-c1ccc(C(=O)N2CCCN(S(=O)(=O)c3ccc(F)cc3)CC2)cc1,inactive,–
Cc1csc(NC(=O)CSc2nnc(C)n2Cc2ccco2)n1,inactive,–
COc1ccc(OC)c(NC(=O)Cn2c(=O)oc3cc(S(=O)(=O)NCc4ccccc4)ccc32)c1,"inconclusive [inhibitor, single point]",–
COc1ccc(NC(=O)C(CC(C)C)NC(=O)C2CCCCC2)c(OC)c1 (stereo not given),"inconclusive [inhibitor, single point]",–
Cc1noc(C)c1CSc1nc2ccccc2n1CCc1ccccc1,"inconclusive [inhibitor, single point]",–

Structure (SMILES),Potency,"activity change, negative = growth inhibition"
CCc1nc2ccc(C(=O)NCCc3ccc(SC)cc3)cc2nc1CC,"inconclusive [inhibitor, single point]",–
Cc1cc(S(=O)(=O)Nc2cc3c(cc2N2CCOCC2)n(C)c(=O)n3C)ccc1F,active: 23.1 µM,–
COC(=O)C[C@H]1C=C[C@H](NC(=O)Nc2ccccc2OC)[C@@H](CO)O1,inactive,–
Clc1cccc(-c2nnc(CN3CCN(c4ccccn4)CC3)o2)c1,inactive,–
Cc1ccccc1N1CCN(CCC(=O)Nc2ccc(F)cc2)CC1,"inconclusive [inhibitor, single point]",–
Cc1ccc(N(NC(=O)C(O)(c2ccccc2)c2ccccc2)C(=O)CCl)cc1,active: 4.11 µM,–
CCOc1ccc(S(=O)(=O)N2CCC(C(=O)NCc3ccncc3)CC2)cc1Cl,inactive,–
CCOc1ccc(S(=O)(=O)N(C)c2ccc(OCC(=O)NCC3CCCCC3)cc2)cc1,active: 16.4 µM,–
CCOC(=O)c1cc(NC(=O)c2ccc(Cl)cc2)c(=O)oc1-c1ccccc1,"inconclusive [inhibitor, single point]",–
CC(C)NC(=O)Cn1ncn2c(cc3cc(F)ccc32)c1=O,inactive,–
CCN(CC)S(=O)(=O)c1ccc(/C=C/C(=O)N(c2ccccn2)C2CCCCC2)cc1,"inconclusive [inhibitor, single point]",–
O=C(NC1CC1)c1ccc(CSCc2ccccc2Cl)o1,"inconclusive [inhibitor, single point]",–
NS(=O)(=O)c1ccc(NC(=S)NCc2ccc3c(c2)OCO3)cc1,inactive,–
O=C(Nc1ncc(Cc2cccc(Cl)c2)s1)C1=NCCN1,active: 16.4 µM,–
CC1(C(=O)NS(=O)(=O)c2ccc(C#N)cc2)CCN1C(=O)CC1CCCC1 (stereo not given),inactive,–
O=[N+]([O-])c1ccc(CS(=O)Cc2ccccc2)cc1 (stereo not given),inactive,–
CN(C)c1ncc2nc(-c3cn(C)c4ccccc34)c(=O)n(C[C@H]3CCCO3)c2n1,inactive,–
Cc1nn(-c2ccccc2)c2c1C1(C(=O)N(C)c3ccccc31)C(C#N)=C(N)O2 (stereo not given),active: 16.4 µM,–
COc1ccc2nc(C)cc(NCc3ccc(F)cc3)c2c1,"inconclusive [inhibitor, single point]",–
O=c1[nH]c(-c2ccc(Cl)cc2)cs1,"inconclusive [inhibitor, partial curve]",–
Oc1cccc2c(NC(=S)Nc3ccc(SC(F)F)cc3)cccc12,"inconclusive [inhibitor, single point]",–
COc1cc2c(cc1OC)CN(C(=O)C1CCCN1S(=O)(=O)c1ccc(C)cc1)CC2 (stereo not given),inactive,–
NC(=NCCc1c[nH]c2ccccc12)NC(=O)c1ccc(Cl)cc1,"inconclusive [inhibitor, single point]",–
CCN(CC)S(=O)(=O)c1ccc2c(c1)N(CC(=O)N1CCN(c3cc(Cl)ccc3C)CC1)C(=O)CO2,"inconclusive [inhibitor, single point]",–

Structure (SMILES),Potency,"activity change, negative = growth inhibition"
Nc1nnc(SCC(=O)NNC(=O)c2ccc(F)cc2)s1,inactive,–
O=C1Nc2ccc(S(=O)(=O)NCCC3=CCCCC3)c3cccc1c23,"inconclusive [inhibitor, partial curve]",–
CCc1ccccc1N1CC(c2nnc(NC(=O)c3ccco3)s2)CC1=O (stereo not given),inactive,–
O=S1(=O)[C@H]2CC3O[C@]2(C[C@@H]3c2ccc(F)cc2)CN1Cc1ccc(Cl)cc1,"inconclusive [inhibitor, single point]",–
O=C1c2ccccc2C(=O)N1N(c1ccccc1)c1ccccc1,inactive,–
COc1ccc(N(C(=O)C2COc3ccccc3O2)C(C(=O)NC2CCCCC2)c2ccccc2)cc1OC (stereo not given),"inconclusive [inhibitor, single point]",–
COc1ccc(OC)c(/C=N/NC(=O)C(=O)N2CCCC2)c1,–,inconclusive: -33.8% [inhibitor]
Cc1cc(=O)[nH]c(/N=C(\N)Nc2ccc(SC(F)F)cc2)n1,"inconclusive [inhibitor, single point]",–
COc1ccc(/C=C/C(=O)OC(C)CN2CCOCC2)cc1 (stereo not given),inactive,–
COc1ccc(C2CC(=O)c3cc(-c4nc(-c5ccc(Cl)cc5)cs4)c(=O)[nH]c3C2)cc1 (stereo not given),inactive,–
Cc1cn(CC(=O)NCc2ccc(N(C)C)cc2)c(=O)[nH]c1=O,"inconclusive [inhibitor, single point]",–
Cc1ccc(S(=O)(=O)N(CC(=O)Nc2ccc(Cl)c([N+](=O)[O-])c2)C2CCCCC2)cc1,"inconclusive [inhibitor, single point]",–
Cc1ccc(N(C(=O)c2snc(C(N)=O)c2N)C(C(=O)NCC2CCCO2)c2ccc3ncccc3c2)cc1 (stereo not given),"inconclusive [inhibitor, single point]",–
Cc1ccc(C)c(Cn2c3ccccc3c3cnn(CC(=O)NCCCN4CCCCC4)c(=O)c32)c1,"inconclusive [inhibitor, single point]",–
O=C(NCCC1=CCCCC1)c1c(O)nc2sccn2c1=O,"inconclusive [inhibitor, single point]",–
CCOc1ccc(CNC(=O)C2CCN(C3=NS(=O)(=O)C(c4ccc(C)cc4)=C3CC)CC2)cc1,active: 18.4 µM,–
CCCCCn1c(=O)[nH]c2cc(C(=O)N3CCN(c4ccc(C(C)=O)cc4)CC3)ccc2c1=O,active: 14.6 µM,–
COc1cc(NC(=O)c2cc(-c3ccccc3O)no2)cc(OC)c1OC,active: 2.31 µM,–
O=C(Nc1ccc2c(c1)CCO2)Nc1nnc([C@H]2C[C@H](O)[C@@H](CO)O2)s1,inactive,–
Cc1cc(C)n(CC(=O)N2c3ccccc3Sc3ccccc32)n1,"inconclusive [inhibitor, single point]",–
Cc1ccc2nc(SCC(=O)NCC3Cc4cc(-c5ncccc5C)ccc4O3)[nH]c2c1 (stereo not given),–,inactive: 3.44% [at 9.04 µM]
Cn1c2ccccc2c2c(C(=O)N3CCN(c4ccc(F)cc4)CC3)cn(C3CCCC3)c(=O)c21,"inconclusive [inhibitor, single point]",–
